# According to paper PMC9911399, “Two distinct binding modes provide the RNA-binding protein RbFox with extraordinary sequence specificity”:
# Positions count from the first letter of the chain named. The list shows a part of the results.
# T1: RBFOX1 RRM RbFoxmut (Fox-RRM*) (Homo sapiens, UniProt Q9NWB1 109-208, R118D;E147R;N151S;E152T)
# T1 sequence: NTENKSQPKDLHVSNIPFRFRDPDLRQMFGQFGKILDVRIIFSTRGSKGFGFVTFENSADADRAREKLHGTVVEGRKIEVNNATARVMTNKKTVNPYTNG
# B1: CGAUAUC (DNA:RNA)
# RNA: GGGAGACCGGAAUUCAGAUUGUCCCGAUAUCUUAAAUCCCGUCGUAGCCACCA
# DNA 1: CAATCTGAATTCCGGTCTCCC
# DNA 2: TGGTGGCTACGACGGGATT
# B2: UUGGACA (DNA:RNA)
# RNA: B1 RNA with C25U, G26U, A27G, U28G, U30C, C31A
# DNA 1: CAATCTGAATTCCGGTCTCCC
# DNA 2: TGGTGGCTACGACGGGATT
# B3: CGCUUUG (DNA:RNA)
# RNA: B1 RNA with A27C, A29U, C31G
# DNA 1: CAATCTGAATTCCGGTCTCCC
# DNA 2: TGGTGGCTACGACGGGATT
# B4: UAUGUCC (DNA:RNA)
# RNA: B1 RNA with C25U, G26A, A27U, U28G, A29U, U30C
# DNA 1: CAATCTGAATTCCGGTCTCCC
# DNA 2: TGGTGGCTACGACGGGATT
# B5: UAAUCGA (DNA:RNA)
# RNA: B1 RNA with C25U, G26A, A29C, U30G, C31A
# DNA 1: CAATCTGAATTCCGGTCTCCC
# DNA 2: TGGTGGCTACGACGGGATT
# B6: CGUGAGC (DNA:RNA)
# RNA: B1 RNA with A27U, U28G, U30G
# DNA 1: CAATCTGAATTCCGGTCTCCC
# DNA 2: TGGTGGCTACGACGGGATT
# B7: CAUACCC (DNA:RNA)
# RNA: B1 RNA with G26A, A27U, U28A, A29C, U30C
# DNA 1: CAATCTGAATTCCGGTCTCCC
# DNA 2: TGGTGGCTACGACGGGATT
# B8: AGGAGAU (DNA:RNA)
# RNA: B1 RNA with C25A, A27G, U28A, A29G, U30A, C31U
# DNA 1: CAATCTGAATTCCGGTCTCCC
# DNA 2: TGGTGGCTACGACGGGATT
# B9: GGGAAGC (DNA:RNA)
# RNA: B1 RNA with C25G, A27G, U28A, U30G
# DNA 1: CAATCTGAATTCCGGTCTCCC
# DNA 2: TGGTGGCTACGACGGGATT
# B10: CCGAAGA (DNA:RNA)
# RNA: B1 RNA with G26C, A27G, U28A, U30G, C31A
# DNA 1: CAATCTGAATTCCGGTCTCCC
# DNA 2: TGGTGGCTACGACGGGATT
# B11: ACCUAUC (DNA:RNA)
# RNA: B1 RNA with C25A, G26C, A27C
# DNA 1: CAATCTGAATTCCGGTCTCCC
# DNA 2: TGGTGGCTACGACGGGATT
# B12: UUGCACA (DNA:RNA)
# RNA: B1 RNA with C25U, G26U, A27G, U28C, U30C, C31A
# DNA 1: CAATCTGAATTCCGGTCTCCC
# DNA 2: TGGTGGCTACGACGGGATT
# B13: CCACCAC (DNA:RNA)
# RNA: B1 RNA with G26C, U28C, A29C, U30A
# DNA 1: CAATCTGAATTCCGGTCTCCC
# DNA 2: TGGTGGCTACGACGGGATT
# B14: UCCUUGG (DNA:RNA)
# RNA: B1 RNA with C25U, G26C, A27C, A29U, U30G, C31G
# DNA 1: CAATCTGAATTCCGGTCTCCC
# DNA 2: TGGTGGCTACGACGGGATT
# B15: UACACCG (DNA:RNA)
# RNA: GGGAGACCGGAAUUCAGAUUGUCCUACACCGUUAAAUCCCGUCGUAGCCACCA
# DNA 1: CAATCTGAATTCCGGTCTCCC
# DNA 2: TGGTGGCTACGACGGGATT
# B16: UACACAU (DNA:RNA)
# RNA: B15 RNA with C30A, G31U
# DNA 1: CAATCTGAATTCCGGTCTCCC
# DNA 2: TGGTGGCTACGACGGGATT
# B17: CUCAGAU (DNA:RNA)
# RNA: B15 RNA with U25C, A26U, C29G, C30A, G31U
# DNA 1: CAATCTGAATTCCGGTCTCCC
# DNA 2: TGGTGGCTACGACGGGATT
# B18: UAGCCCC (DNA:RNA)
# RNA: B15 RNA with C27G, A28C, G31C
# DNA 1: CAATCTGAATTCCGGTCTCCC
# DNA 2: TGGTGGCTACGACGGGATT
# B19: UGUGUAG (DNA:RNA)
# RNA: B15 RNA with A26G, C27U, A28G, C29U, C30A
# DNA 1: CAATCTGAATTCCGGTCTCCC
# DNA 2: TGGTGGCTACGACGGGATT
# B20: GAACCGU (DNA:RNA)
# RNA: B15 RNA with U25G, C27A, A28C, C30G, G31U
# DNA 1: CAATCTGAATTCCGGTCTCCC
# DNA 2: TGGTGGCTACGACGGGATT
# B21: UUAGCGA (DNA:RNA)
# RNA: B15 RNA with A26U, C27A, A28G, C30G, G31A
# DNA 1: CAATCTGAATTCCGGTCTCCC
# DNA 2: TGGTGGCTACGACGGGATT
# B22: GUGCCAG (DNA:RNA)
# RNA: B15 RNA with U25G, A26U, C27G, A28C, C30A
# DNA 1: CAATCTGAATTCCGGTCTCCC
# DNA 2: TGGTGGCTACGACGGGATT
# B23: GGUCCAC (DNA:RNA)
# RNA: B1 RNA with C25G, A27U, U28C, A29C, U30A
# DNA 1: CAATCTGAATTCCGGTCTCCC
# DNA 2: TGGTGGCTACGACGGGATT
# B24: GAGUAUC (DNA:RNA)
# RNA: B1 RNA with C25G, G26A, A27G
# DNA 1: CAATCTGAATTCCGGTCTCCC
# DNA 2: TGGTGGCTACGACGGGATT
# B25: ACGUCCG (DNA:RNA)
# RNA: B15 RNA with U25A, A26C, C27G, A28U
# DNA 1: CAATCTGAATTCCGGTCTCCC
# DNA 2: TGGTGGCTACGACGGGATT
# B26: GUUGUCU (DNA:RNA)
# RNA: B15 RNA with U25G, A26U, C27U, A28G, C29U, G31U
# DNA 1: CAATCTGAATTCCGGTCTCCC
# DNA 2: TGGTGGCTACGACGGGATT
# B27: ACCUCGU (DNA:RNA)
# RNA: B15 RNA with U25A, A26C, A28U, C30G, G31U
# DNA 1: CAATCTGAATTCCGGTCTCCC
# DNA 2: TGGTGGCTACGACGGGATT
# B28: UCCACGA (DNA:RNA)
# RNA: B15 RNA with A26C, C30G, G31A
# DNA 1: CAATCTGAATTCCGGTCTCCC
# DNA 2: TGGTGGCTACGACGGGATT
# B29: CUCGCCU (DNA:RNA)
# RNA: B15 RNA with U25C, A26U, A28G, G31U
# DNA 1: CAATCTGAATTCCGGTCTCCC
# DNA 2: TGGTGGCTACGACGGGATT
# B30: UUCGAGA (DNA:RNA)
# RNA: B15 RNA with A26U, A28G, C29A, C30G, G31A
# DNA 1: CAATCTGAATTCCGGTCTCCC
# DNA 2: TGGTGGCTACGACGGGATT
# B31: AUCGUAA (DNA:RNA)
# RNA: B15 RNA with U25A, A26U, A28G, C29U, C30A, G31A
# DNA 1: CAATCTGAATTCCGGTCTCCC
# DNA 2: TGGTGGCTACGACGGGATT
# Target: T1, RBFOX1 RRM RbFoxmut (Fox-RRM*)
# Assay: EMSA; HiTS-Eq, 1 nM pool, 10 min; buffer printed only for the single-RNA assays: 10 mM Tris pH 7.5, 150 mM NaCl, 3.4 mM EDTA, 0.001% NP-40, 30 C
# Settings: tags: His6 N-terminal (pET28a); label: 5' 32P
# How it was run: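 Purified RbFox RRM, wild type or mutant, was incubated for 10 min in 50 µL with 1 nM of a 5′-radiolabelled RNA pool carrying 7 randomized nucleotides, whose flanks were annealed to DNA oligonucleotides, over a series of increasing protein concentrations. Unbound RNA was resolved on 8% native PAGE, cut out, reverse-transcribed, barcoded by PCR and sequenced on an Illumina HiSeq 2500. Relative association constants were derived from changes in read counts for each RNA species versus the control reaction and normalised to the cognate motif.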
row,Binder,binding signal
1,B1,0.058 KA relative to UGCAUGU
2,B2,0.0509 KA relative to UGCAUGU
3,B3,0.118 KA relative to UGCAUGU
4,B4,0.107 KA relative to UGCAUGU
5,B5,0.0439 KA relative to UGCAUGU
6,B6,0.125 KA relative to UGCAUGU
7,B7,0.08 KA relative to UGCAUGU
8,B8,0.115 KA relative to UGCAUGU
9,B9,0.0873 KA relative to UGCAUGU
10,B10,0.0837 KA relative to UGCAUGU
11,B11,0.0961 KA relative to UGCAUGU
12,B12,0.0925 KA relative to UGCAUGU
13,B13,0.0828 KA relative to UGCAUGU
14,B14,0.0776 KA relative to UGCAUGU
15,B15,0.0696 KA relative to UGCAUGU
16,B16,0.106 KA relative to UGCAUGU

row,Binder,binding signal
1,B17,0.118 KA relative to UGCAUGU
2,B18,0.0774 KA relative to UGCAUGU
3,B19,0.196 KA relative to UGCAUGU
4,B20,0.126 KA relative to UGCAUGU
5,B21,0.0644 KA relative to UGCAUGU
6,B22,0.0858 KA relative to UGCAUGU
7,B23,0.087 KA relative to UGCAUGU
8,B24,0.237 KA relative to UGCAUGU
9,B25,0.121 KA relative to UGCAUGU
10,B26,0.0966 KA relative to UGCAUGU
11,B27,0.106 KA relative to UGCAUGU
12,B28,0.0743 KA relative to UGCAUGU
13,B29,0.0799 KA relative to UGCAUGU
14,B30,0.0954 KA relative to UGCAUGU
15,B31,0.142 KA relative to UGCAUGU
